Reference: US20090047335A1, “Anti-angiogenic peptides and methods of use thereof” (SOPHERION THERAPEUTICS, INC., priority 2004, published 2009)
Values joined by “and” are separate entries in the source; they are usually repeats but may differ in a detail not shown here. Identical values can stand only once. At least one peptide structure holds a part that was inferred or is arguable (an end, a ring closure or a residue).

Columns and labels:
[1] = test system: bovine retinal endothelial cells (BRE); experiment: VEGF mediated survival/proliferation of BRE cells, WST-1 assay, peptides added at plating (before cells adhered); format: cell-based; details: for WST-1 induced colorimetric change measured at 440 nm, average: average of wells; for WST-1 induced colorimetric change measured at 440 nm: single wells
Experimental: The anti-angiogenic activities of the peptides were tested by measuring the level of inhibition of VEGF mediated survival/proliferation of bovine retinal endothelial cells (BRE), a standard cell line used to test anti-angiogenic compounds. Cells were maintained in Cambrex EGM-2MV medium. On day one cells were starved for either 6 hours or overnight, and thereafter trypsinized and plated in a 96 well plate in 100 μl of Invitrogen OptiMem+1% fetal bovine serum. A 100 μl aliquot of Invitrogen OptiMem+1% fetal bovine serum was then added to the wells in addition to, where appropriate, VEGF to a final concentration of 25 ng/ml and the various peptides to final concentration of 12.5, 25, 50 and 100 μg/ml. After 72 hours incubation, the number of live cells in each well was determined using the WST-1 assay (Roche).
The experiment was repeated using higher concentrations of peptide, to a maximum concentration of 200 μg/ml. This required the addition of a substantial amount of water (the peptides are soluble in water and are maintained as stock solution of 2 mg/ml). Therefore, we tested whether the addition of water itself would have any inhibitory effects. As before, BRE were maintained in Cambrex EGM-2MV medium. On day one, cells were starved for either 6 hours or overnight, and thereafter trypsinized and plated in a 96 well plate in 100 μl of OptiMem+1% fetal bovine serum. A 100 μl aliquot of OptiMem+1% fetal bovine serum was then added to the wells, further containing, where appropriate, VEGF to a final concentration of 25 ng/ml and the various peptides to final concentration of 25, 50, 100 and 200 μg/ml. After 72 hours incubation, the amount of live cells in each well was measured using the WST-1 assay (Roche). […]

[2] = test system: Human umbilical vein endothelial cells (HUVEC); experiment: VEGF-mediated HUVEC survival, WST-1 assay; format: cell-based; details: for WST-1 induced colorimetric change measured at 440 nm, average: average of 4 wells; for WST-1 induced colorimetric change measured at 440 nm, average / WST-1 induced colorimetric change measured at 440 nm: HUVEC, Table 8; for WST-1 induced colorimetric change measured at 440 nm: single wells, VEGF 10 ng/ml, 72 h

Compound: CC(C)C[C@H](NC(=O)[C@H](CO)NC(=O)[C@@H](NC(=O)[C@H](C)N)[C@@H](C)O)C(=O)N1CCC[C@H]1C(=O)N1CCC[C@H]1C(=O)N[C@@H](Cc1c[nH]cn1)C(=O)N[C@@H](CO)C(=O)N[C@@H](CO)C(=O)N[C@@H](CCC(N)=O)C(=O)N[C@@H](CO)C(=O)N1CCC[C@H]1C(=O)O [ST100,038, ATSLPPHSSQSP]
- WST-1 induced colorimetric change measured at 440 nm, average ([1]; peptide 5 μg/ml, VEGF 25 ng/ml, 72 h, Table 4): 0.852
- WST-1 induced colorimetric change measured at 440 nm, average ([1]; peptide 12.5 μg/ml, VEGF 25 ng/ml, 72 h, Table 2): 0.705
- WST-1 induced colorimetric change measured at 440 nm, average ([1]; peptide 12.5 μg/ml, VEGF 25 ng/ml, 72 h, Table 4): 0.8367
- WST-1 induced colorimetric change measured at 440 nm, average ([1]; peptide 25 μg/ml, VEGF 25 ng/ml, 72 h, Table 2): 0.609
- WST-1 induced colorimetric change measured at 440 nm, average ([1]; peptide 25 μg/ml, VEGF 25 ng/ml, 72 h, Table 3): 0.457
- WST-1 induced colorimetric change measured at 440 nm, average ([1]; peptide 25 μg/ml, VEGF 25 ng/ml, 72 h, Table 4): 0.826
- WST-1 induced colorimetric change measured at 440 nm, average ([1]; peptide 50 μg/ml, VEGF 25 ng/ml, 72 h, Table 2): 0.503
- WST-1 induced colorimetric change measured at 440 nm, average ([1]; peptide 50 μg/ml, VEGF 25 ng/ml, 72 h, Table 3): 0.410
- WST-1 induced colorimetric change measured at 440 nm, average ([1]; peptide 50 μg/ml, VEGF 25 ng/ml, 72 h, Table 4): 0.6385
- WST-1 induced colorimetric change measured at 440 nm, average ([1]; peptide 100 μg/ml, VEGF 25 ng/ml, 72 h, Table 2): 0.476
- WST-1 induced colorimetric change measured at 440 nm, average ([1]; peptide 100 μg/ml, VEGF 25 ng/ml, 72 h, Table 3): 0.387
- WST-1 induced colorimetric change measured at 440 nm, average ([1]; peptide 200 μg/ml, VEGF 25 ng/ml, 72 h, Table 3): 0.342
- BRE growth and survival (in words) ([1]; cells grown in OptiMem+10% fetal bovine serum): inhibited BRE growth and survival
- VEGF-induced increase in WST-1 value ([1]; concentrations above 25 μg/ml, Table 2 experiment): completely abolished
- WST-1 induced colorimetric change measured at 440 nm ([1]; 10% serum, peptide 10, Table 6): 0.688 and 0.702 and 0.685 and 0.696
- WST-1 induced colorimetric change measured at 440 nm ([1]; 10% serum, peptide 30, Table 6): 0.657 and 0.642 and 0.684 and 0.667
- WST-1 induced colorimetric change measured at 440 nm ([1]; 10% serum, peptide 50, Table 6): 0.663 and 0.646 and 0.658 and 0.669
- WST-1 induced colorimetric change measured at 440 nm ([1]; 10% serum, peptide 75, Table 6): 0.615 and 0.602 and 0.637 and 0.734
- WST-1 induced colorimetric change measured at 440 nm ([1]; added before cells adhered, peptide 10, Table 6): 0.517 and 0.546 and 0.521
- WST-1 induced colorimetric change measured at 440 nm ([1]; added before cells adhered, peptide 30, Table 6): 0.519 and 0.517 and 0.528
- WST-1 induced colorimetric change measured at 440 nm ([1]; added before cells adhered, peptide 50, Table 6): 0.476 and 0.469 and 0.479
- WST-1 induced colorimetric change measured at 440 nm ([1]; added before cells adhered, peptide 75, Table 6): 0.448 and 0.444 and 0.438
- WST-1 induced colorimetric change measured at 440 nm ([1]; peptide 5 μg/ml, VEGF 25 ng/ml, 72 h, 1% FBS, Table 4): 0.858 and 0.855 and 0.839 and 0.856
- WST-1 induced colorimetric change measured at 440 nm ([1]; peptide 12.5 μg/ml, VEGF 25 ng/ml, 72 h, 1% FBS, Table 2): 0.669 and 0.701 and 0.719 and 0.732
- WST-1 induced colorimetric change measured at 440 nm ([1]; peptide 12.5 μg/ml, VEGF 25 ng/ml, 72 h, 1% FBS, Table 4): 0.8 and 0.837 and 0.86 and 0.85
- WST-1 induced colorimetric change measured at 440 nm ([1]; peptide 25 μg/ml, VEGF 25 ng/ml, 72 h, 1% FBS, Table 2): 0.624 and 0.598 and 0.625 and 0.590
- WST-1 induced colorimetric change measured at 440 nm ([1]; peptide 25 μg/ml, VEGF 25 ng/ml, 72 h, 1% FBS, Table 3): 0.461 and 0.482 and 0.450 and 0.434
- WST-1 induced colorimetric change measured at 440 nm ([1]; peptide 25 μg/ml, VEGF 25 ng/ml, 72 h, 1% FBS, Table 4): 0.783 and 0.856 and 0.83 and 0.835
- WST-1 induced colorimetric change measured at 440 nm ([1]; peptide 50 μg/ml, VEGF 25 ng/ml, 72 h, 1% FBS, Table 2): 0.546 and 0.479 and 0.496 and 0.489
- WST-1 induced colorimetric change measured at 440 nm ([1]; peptide 50 μg/ml, VEGF 25 ng/ml, 72 h, 1% FBS, Table 3): 0.365 and 0.458 and 0.403 and 0.413
- WST-1 induced colorimetric change measured at 440 nm ([1]; peptide 50 μg/ml, VEGF 25 ng/ml, 72 h, 1% FBS, Table 4): 0.644 and 0.654 and 0.627 and 0.629
- WST-1 induced colorimetric change measured at 440 nm ([1]; peptide 100 μg/ml, VEGF 25 ng/ml, 72 h, 1% FBS, Table 2): 0.481 and 0.466 and 0.447 and 0.511
- WST-1 induced colorimetric change measured at 440 nm ([1]; peptide 100 μg/ml, VEGF 25 ng/ml, 72 h, 1% FBS, Table 3): 0.382 and 0.361 and 0.406 and 0.399
- WST-1 induced colorimetric change measured at 440 nm ([1]; peptide 200 μg/ml, VEGF 25 ng/ml, 72 h, 1% FBS, Table 3): 0.348 and 0.343 and 0.341 and 0.336
- WST-1 decreases in HUVEC, Student's t-test (in words) ([2]; 10, 30, 100 μg/ml): statistically significant for the 2 highest concentrations
- WST-1 induced colorimetric change measured at 440 nm, average ([2]; peptide 10 μg/ml): 0.7400
- WST-1 induced colorimetric change measured at 440 nm, average ([2]; peptide 30 μg/ml): 0.6775
- WST-1 induced colorimetric change measured at 440 nm, average ([2]; peptide 100 μg/ml): 0.6603
- WST-1 induced colorimetric change measured at 440 nm ([2]; peptide 10 μg/ml): 0.764 and 0.765 and 0.785 and 0.646
- WST-1 induced colorimetric change measured at 440 nm ([2]; peptide 30 μg/ml): 0.693 and 0.568 and 0.716 and 0.733
- WST-1 induced colorimetric change measured at 440 nm ([2]; peptide 100 μg/ml): 0.633 and 0.676 and 0.686 and 0.646
